Source: patent US5792635A, “Method of inhibiting the sodium/proton exchanger NHE3 and method of inhibiting growth by administering squalamine” (priority 1995, dated 1998)

Test system: L1210 lymphoblastic leukemia cells
Experiment: Mouse model of leukemia (L1210), survival and hematological profile
Settings: L1210-inoculated mice

In the case of `CC(C)[C@@H](CC[C@@H](C)[C@H]1CC[C@H]2[C@@H]3[C@H](O)C[C@H]4C[C@@H](NCCCNCCCCNCCCN)CC[C@]4(C)[C@H]3CC[C@]12C)OS(=O)(=O)O` [Compound 1436], the hematological profile is reported as “near normal hematocrit, with evidence of a robust granulocyte count”.
